# Measured values published in publication PMC4336329 (PLoS ONE, 2015).
# Out of some 310,000 compounds screened, about 2,200 (0.71%) showed an effect of 50% or more. Effects have a minus sign here. The list shows a part of the results.
# Target: human ether-à-go-go-related gene (hERG) potassium channel (human, UniProt Q12809)
# Test: primary screen, population patch clamp on CHO cells stably expressing hERG
# Sequence of human ether-à-go-go-related gene (hERG) potassium channel (Q12809 whole entry, looked up): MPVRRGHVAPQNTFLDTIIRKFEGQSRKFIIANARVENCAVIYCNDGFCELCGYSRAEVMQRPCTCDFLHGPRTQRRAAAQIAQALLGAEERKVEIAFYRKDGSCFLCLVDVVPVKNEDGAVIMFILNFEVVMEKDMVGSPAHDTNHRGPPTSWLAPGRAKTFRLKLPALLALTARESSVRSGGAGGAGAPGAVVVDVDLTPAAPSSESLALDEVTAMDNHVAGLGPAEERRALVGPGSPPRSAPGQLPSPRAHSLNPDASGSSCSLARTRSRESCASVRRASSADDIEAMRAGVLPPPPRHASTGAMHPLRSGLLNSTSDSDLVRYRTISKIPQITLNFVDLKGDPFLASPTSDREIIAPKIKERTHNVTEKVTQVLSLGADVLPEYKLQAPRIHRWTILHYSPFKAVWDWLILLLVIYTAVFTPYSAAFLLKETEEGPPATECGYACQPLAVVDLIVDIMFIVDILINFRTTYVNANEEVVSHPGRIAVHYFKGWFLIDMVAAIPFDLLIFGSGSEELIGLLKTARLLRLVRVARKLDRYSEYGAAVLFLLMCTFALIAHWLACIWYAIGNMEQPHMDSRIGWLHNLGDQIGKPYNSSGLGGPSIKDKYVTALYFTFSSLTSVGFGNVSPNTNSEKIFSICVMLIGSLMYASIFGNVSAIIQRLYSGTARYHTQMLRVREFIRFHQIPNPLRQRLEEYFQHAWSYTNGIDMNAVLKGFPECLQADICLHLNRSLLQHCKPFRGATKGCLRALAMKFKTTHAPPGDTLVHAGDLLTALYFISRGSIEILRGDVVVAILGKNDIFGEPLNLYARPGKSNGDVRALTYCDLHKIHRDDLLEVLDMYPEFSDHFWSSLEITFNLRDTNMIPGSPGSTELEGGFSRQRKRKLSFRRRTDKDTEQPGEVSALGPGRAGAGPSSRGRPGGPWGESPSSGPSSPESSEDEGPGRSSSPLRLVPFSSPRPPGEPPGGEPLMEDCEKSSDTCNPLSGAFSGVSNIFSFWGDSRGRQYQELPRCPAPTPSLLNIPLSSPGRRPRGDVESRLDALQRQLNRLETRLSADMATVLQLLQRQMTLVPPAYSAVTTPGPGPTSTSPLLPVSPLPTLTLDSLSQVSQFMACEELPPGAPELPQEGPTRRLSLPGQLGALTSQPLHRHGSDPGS
row,Compound,"hERG current change (%, negative = inhibition) at 1uM [%]"
1,COc1ccc(NC(=O)CN2C(=O)C(c3ccccc3)=NC23CCCCCC3)cc1,8.77
2,CCOc1ccc(NC(=O)Nc2ccon2)cc1,11.4
3,O=C(Nc1ccc(F)cc1)C1CCN(c2ncnc3c2nc2n3CCCCC2)CC1,4.72
4,COc1cc(C(=O)NCCC(=O)NC(C)CCc2ccccc2)cc(OC)c1OC (centres unmarked),0.971
5,O=C(C/C=N\OCc1ccc([N+](=O)[O-])cc1)Nc1ccc(Br)cc1,16.6
6,Cc1ccc2cc(C(c3nnnn3C3CCCC3)N3CCN(c4ccccc4)CC3)c(=O)[nH]c2c1 (centres unmarked),-10.5
7,CN(Cc1ccccc1)Cc1nc2c([nH]1)c(=O)[nH]c(=O)n2C,0.171
8,CC(C)C1=CC2=CCC3C(C)(C(=O)[O-])CCCC3(C)C2CC1.CC(C12CC3CC(CC(C3)C1)C2)[N+](C)(C)C (centres unmarked),11.2
9,N#Cc1c(-c2ccccc2)nc(SCC(=O)Nc2nnc(C(F)(F)F)s2)[nH]c1=O,8.9
10,CCOc1cc2[nH]c(=S)n(CCN3CCC(C)CC3)c(=O)c2cc1OCC,-19.1
11,O=[N+]([O-])c1ccc(N2N=C(c3ccco3)CC2c2ccccc2)cc1 (centres unmarked),0.585
12,COC(=O)Cc1[nH]nc2c1C(C1C=CCCC1)C(C#N)=C(N)O2 (centres unmarked),-10.2
13,CCOC(=O)C(C)(C)Oc1ccc(Cl)cc1,8.05
14,Cc1nc(S/C(=C/c2ccc(-c3ccc(C(=O)O)cc3)o2)C(=O)O)n[nH]1,-2.87
15,O=C(Nc1cccc(S(=O)(=O)N2CCOCC2)c1)C(c1ccccc1)N1CCCCC1 (centres unmarked),1.78
16,COc1ccc(CC(=O)Nc2cccc(C(=O)O)c2C)cc1,16.7
17,N#C/C(=C\c1ccc(Cl)c([N+](=O)[O-])c1)c1ccccn1,7.77
18,CC(=O)N1N=C(N)SC1c1cccc([N+](=O)[O-])c1 (centres unmarked),8.19
19,CC(CCc1ccccc1)NC(=O)CNC(=O)c1cccs1 (centres unmarked),-5.52
20,O=S(=O)(NCc1ccncc1)c1ccc(Br)s1,3.27
21,Cc1cc(NC(=O)Cc2ccccc2[N+](=O)[O-])no1,17.6
22,O=C(Nc1ccccc1C(=O)O)c1ccc(Cl)c(S(=O)(=O)N2CCOCC2)c1,12.6

row,Compound,"hERG current change (%, negative = inhibition) at 1uM [%]"
1,Cn1c(C(C#N)C(=O)Cc2cccc3ccccc23)nc2ccccc21 (centres unmarked),11.6
2,O=C(NCc1cccnc1)/C(=C/c1ccc(-c2cccc(Cl)c2)o1)S(=O)(=O)c1ccccc1,-4.77
3,COc1ccc(Cl)cc1NC(=O)Cn1c(NCCO)nc2ccccc21,15.5
4,COc1ccc(CNc2nc(-c3cccnc3)nn2C(=O)c2cccs2)cc1,2.12
5,COc1ccc([N+](=O)[O-])cc1NC(=O)c1ccc(N(Cc2ccccc2Cl)S(C)(=O)=O)cc1,-1.33
6,S=c1[nH]nc(-c2cc(-c3ccccc3)n[nH]2)n1/N=C/c1c(Cl)cccc1Cl,21.5
7,C=CCn1c(CNC(=O)c2ccco2)nnc1SCC(=O)c1ccc(OC)cc1,1.89
8,CCOc1ccc2nc(SCC(=O)N3c4ccccc4Sc4ccccc43)sc2c1,8.21
9,COc1ccc(CCC(=O)Nc2ccc(N3CCOCC3)cc2)cc1,4.17
10,O=C(NCc1ccc2c(c1)OCO2)C1CC(=O)N(CCc2ccccc2)C1 (centres unmarked),16.9
11,NC(=O)COc1ccc2oc(=O)cc(-c3cc4ccccc4o3)c2c1,20.5
12,CC1CCc2sc(C(=O)NC(C)C3CCCO3)cc2C1 (centres unmarked),-4.56
13,CC(C(=O)NC(=O)NC1CCCCC1)N1CCN(c2ccccn2)CC1 (centres unmarked),0.685
14,C[C@H](N)c1nnc(SCC(N)=O)o1.Cl,3.37
15,CCC(C)NC(=O)N[C@@H](CCSC)C(=O)OC (some centres unmarked),0.868
16,C=CCn1c(SCC(=O)c2ccc(OC)cc2)nnc1-c1cc2cccc(OC)c2o1,18
17,COc1ccc(NC(=O)CSc2nnc(-c3cccs3)n2Cc2ccco2)cc1OC,-17.2
18,CC(C)O.COC(=O)Nc1ccc2c(c1)N(C(=O)CCN1CCN3CCCC3C1)c1ccccc1CC2.Cl.O (centres unmarked),8.89
19,CC(=O)NC1C(=O)N=C(SCC(=O)NCc2ccccc2)NC1=O (centres unmarked),-9.46
20,C=CCn1c(N)cc(=O)nc1SCC(=O)Nc1ccc(C(=O)OCC)cc1,16.5
21,CSc1ncc(CN2CCN(CC=C(C)C)C(CCO)C2)cn1 (centres unmarked),16.7
22,O=C(Nc1ccnn1C1CCN(Cc2ccn[nH]2)CC1)c1ccccc1,-12.7

row,Compound,"hERG current change (%, negative = inhibition) at 1uM [%]"
1,COc1ccc(N(CCCN2C(=O)c3cccc4cccc(c34)C2=O)C(=O)c2cccs2)cc1,12.5
2,COc1ccccc1NC(=S)N(CCN1CCCCCC1)Cc1cccs1,-20.6
3,CC(C)(C)OC(=O)NCCCCCNC(=O)c1nc[nH]c1C(=O)NCc1ccccc1,9.62
4,COc1cccc(NC(=O)[C@H](Cc2ccccc2)NC(=O)[C@@H]2Cc3ccccc3CN2)c1,6.62
5,N=c1c(C(=O)NC2CCCC2)cc2c(=O)n3ccccc3nc2n1Cc1ccccc1,-55.9
6,CC(=O)c1cccc(N(CC(=O)N2CCCC2)S(C)(=O)=O)c1,10.3
7,COc1ccc(C2c3c(n[nH]c3C)CC(C)(O)C2C(C)=O)cc1OC (centres unmarked),-3.08
8,COc1ccc(OC)c(/C=C/C(=O)OCC(=O)Nc2ccc3c(c2)OCCO3)c1,12.6
9,CCCOc1ccc(N/C=C/C(=O)c2cc(OC)c(OC)c(OC)c2)cc1,12.4
10,CCC(C)(C)NC(=O)CN(C(=O)c1snc(C(N)=O)c1N)c1ccc2c(c1)OCO2,3.43
11,O=C(CCS(=O)(=O)c1cccs1)N1CCN(c2ccc(F)cc2)CC1,-2.19
12,COC(=O)c1nn(-c2ccccc2)c(Cl)c1/C=N/OCc1ccc(C)cc1,16.9
13,CCC(=O)OCCNc1cc(SCCC(=O)OC)c2nonc2c1[N+](=O)[O-],-2.18
14,Cc1cc2oc(C(=O)NCc3ccc4c(c3)OCO4)c(C)c2cc1C,11.9
15,COc1cc(C(=O)Nc2ccc3c(c2)OCO3)c([N+](=O)[O-])cc1OC,10.8
16,COc1ccc(OC)c(N(CC(=O)NCCSc2ccccc2)S(C)(=O)=O)c1,-12.8
17,Cn1c(CN2CCCC2)nc2cc(NC(=O)C3CCCCC3)ccc21,6.67
18,O=C(NNC(=O)c1nn(-c2ccc(F)cc2)ccc1=O)Nc1cccc(Cl)c1,14.4
19,O=C(COC(=O)c1ccc([N+](=O)[O-])o1)Nc1nc2ccccc2s1,9.21
20,Cc1ccc(S(=O)(=O)CC(=O)Nc2cc(C)on2)cc1,16.4
21,Cc1ccc(NC(=O)CN(C)C(=O)CCC(=O)c2cccs2)cc1,-0.0997
22,Cc1ccc(C)c(NC(=O)CN(C)C(=O)c2nn(C)c(=O)c3ccccc23)c1,7.54

row,Compound,"hERG current change (%, negative = inhibition) at 1uM [%]"
1,CCOC(=O)N1CCN(C(=O)Cn2c(C)cc3ccccc3c2=O)CC1,8.46
2,CCOC(=O)C1=C(C)OC(N)=C(C#N)C1c1ccccc1 (centres unmarked),8.51
3,COC(=O)Nc1nc(C)c(C(=O)c2ccccc2)s1,1.18
4,CCOC(=O)CSc1nc2sc3c(c2c(=O)[nH]1)CC(C)(C)OC3,16
5,CC(c1ccc(F)cc1)n1c(Cn2ncc3ccccc3c2=O)n[nH]c1=S (centres unmarked),10.4
6,COC(=O)c1c(NC(=O)COC(=O)CNC(=O)C2CCCCC2)sc(C)c1C,8.95
7,Cc1ccc(-n2c(Cc3cccn3C)nnc2SCC(=O)Nc2cc(C)on2)cc1,0.494
8,COc1ccc(CCC(=O)OCC(=O)Nc2sccc2C(N)=O)cc1,-2.46
9,Cc1c(/C(O)=C2/C(=O)C(=O)N(CCN3CCOCC3)C2c2ccccn2)cnn1-c1ccccc1 (centres unmarked),5.21
10,Cc1[nH]n(-c2ccccc2)c(=O)c1N=Nc1ccccc1C(=O)O,9.15
11,CCn1c(=O)cc(N2CCOCC2)[nH]c1=O,4.64
12,COc1ccccc1N1CCN(C(=O)c2oc3cc(C)cc(C)c3c2C)CC1,17.7
13,Cc1c(NC(=O)c2ccccc2)c(=O)n(-c2ccccc2)n1C,-6.64
14,O=C(Cn1cnc2ccccc2c1=O)c1ccc(Br)cc1,13.6
15,CCOC(=O)CSc1nc(-c2ccccc2)cc(C(F)(F)F)n1,8
16,CCCC(NC(=O)C(C)N1CCN(S(=O)(=O)c2ccccc2)CC1)c1ccccc1 (centres unmarked),-2.25
17,O=C(Nc1nnc(-c2ccccc2)o1)C1CCCCC1,15.8
18,O=C(c1ccco1)N1CCN(c2nc(C3CC3)nc3c2nnn3Cc2ccccc2Cl)CC1,16.5
19,CCOC(=O)c1sc(N2N=C(C)C(N=Nc3cccc(C)c3)C2=O)nc1C (centres unmarked),-1.94
20,CN(C(=O)c1ccccc1)C1c2c(ccc3ccccc23)OCC1CO (centres unmarked),13.5
